# PubChem BioAssay AID463173 (ICCB-Longwood Screening Facility, Harvard Medical School, 2010)
# The campaign covered roughly 52,000 compounds. About 4,300 (8.3%) were called active. No stated cut-off is given here; in the data, active means survival mostly below about 52% (no sharp cut-off); inactive means mostly above about 56%. The list shows a part of the results.
# System: DeltatarO mutant
# Test: S. aureus survival, RN4220 and DeltatarO strains – OD600, teichoic acid synthesis inhibitors, primary screen (AID 463173)
# Conditions: S. aureus RN4220 wild type/DeltatarO growth, OD600, 18 h, active compounds read low, screened at 18.75 µg/mL (by protocol)
row,SMILES,survival
1,COc1cccc(CNC(=O)Cn2c(=O)n3nc(-c4cccc(F)c4)nc3c3ccccc32)c1,inactive: 77%
2,COc1ccc(NC(=O)CCn2c(=O)c3cccn3c3cccnc32)cc1Cl,inactive: 85%
3,O=C(Cn1c(=O)n(CCCS(=O)(=O)C2CCCCC2)c(=O)c2ccccc21)Nc1ccccc1C(F)(F)F,inactive: 91%
4,Cc1ccc(S(=O)(=O)c2[nH]c(-c3ccccc3)nc2SCC(N)=O)cc1,inactive: 78%
5,Fc1ccc(-c2ccc(CNCCSc3nnnn3-c3ccccc3)o2)cc1,active: 28%
6,O=S(=O)(Nc1nc2ccccc2nc1Nc1ccccc1Br)c1ccccc1,inactive: 112%
7,O=C(CSc1nc2c([nH]c3ccccc32)c(=O)n1-c1cccc(Cl)c1)NCC1CCCO1 (stereo not drawn),inactive: 135%
8,COc1ccc(CNS(=O)(=O)c2cc3c4c(c2)CCN4C(=O)CC3)cc1,inactive: 118%
9,O=C(O)c1c(Cl)c(Cl)c(Cl)c(Cl)c1C(=O)N1CCCC1,inactive: 94%
10,CCOc1ccc(-c2cn(-c3ccc(C)cc3)c(SCC(=O)Nc3ccc(C)cc3)n2)cc1,inactive: 83%
11,COc1cccc(CNC(=O)C(C)n2ncn3cccc3c2=O)c1OC (stereo not drawn),inactive: 71%
12,O=C(Cn1c2ncccc2c(=O)n1-c1ccccc1)NCc1ccccc1Cl,inactive: 68%
13,CC1CCc2c(sc(NC(=O)c3cc(-c4cccc(Cl)c4)on3)c2C(N)=O)C1 (stereo not drawn),inactive: 67%
14,Cc1ccc(NC(=O)Cc2coc3ccc(C(C)C)cc23)c(C)c1,inactive: 88%
15,COc1ccc(CCNC(=O)CSc2cn(CCNC(=O)c3cccc(C(F)(F)F)c3)c3ccccc23)cc1OC,inactive: 59%
16,Cc1ccc(-n2ncc3c(N4CCC(C(N)=O)CC4)ncnc32)cc1,inactive: 60%
17,O=C(Cn1ncc2ccsc2c1=O)N1CCN(c2ccc(F)cc2)CC1,inactive: 87%
18,CCC1CN(C(=O)Nc2cccc3c2CCCC3)c2cc(Cl)ccc2O1 (stereo not drawn),active: 44%
19,Cc1ccc(S(=O)(=O)N2CCc3cc(C(=O)Nc4ccc(C(F)(F)F)cc4)ccc32)cc1,inactive: 63%
20,O=C(Nc1ccccc1)N1CCCCC1,inactive: 68%

row,SMILES,survival
1,Cc1cc(C(F)F)n2nc(C(=O)Nc3ccc(C(C)C)cc3)nc2n1,inactive: 67%
2,Cc1oc(-c2ccccc2Cl)nc1CS(=O)CC(=O)NCc1ccc(Cl)cc1 (stereo not drawn),inactive: 56%
3,O=S(=O)(NC1CCc2ccccc21)c1ccc(S(=O)(=O)N2CCCC2)cc1 (stereo not drawn),inactive: 82%
4,O=c1ccc2cc(S(=O)(=O)NCc3ccc(Br)cc3)ccc2[nH]1,inactive: 102%
5,O=C(NCC1CCCCC1)C1CCCN(c2ncccn2)C1 (stereo not drawn),inactive: 102%
6,Cc1ccc(NC(=O)CSc2nccn2Cc2ccco2)cc1Cl,inactive: 87%
7,COc1cccc(NC(=O)CSCc2cc(=O)c3ccc(C)c(C)c3[nH]2)c1,inactive: 74%
8,CCC(=O)N1CCc2cc(S(=O)(=O)NC(CC(C)C)C(=O)NCCc3cccc(C)c3)ccc21 (stereo not drawn),inactive: 71%
9,CCOc1nc(NC)nc(N(C#N)CN2C(=O)c3ccccc3C2=O)n1,inactive: 83%
10,S=c1sc2c(s1)SC1C(CC3C4C=CC(C4)C31)S2 (stereo not drawn),inactive: 97%
11,CCCn1c2ccccc2c2cnn(CC(=O)N3CCN(c4ccccc4F)CC3)c(=O)c21,active: -4%
12,CCOc1ccc(CCNS(=O)(=O)c2c(C)nc3scc(C)n3c2=O)cc1OCC,inactive: 83%
13,CCOc1ccc(CNC(=O)c2ccc3nc(CC)c(CC)nc3c2)cc1,inactive: 120%
14,CC(C)Oc1cccc(C(=O)Nc2ccc3oc(-c4cccc(Cl)c4)nc3c2)c1,active: 28%
15,COc1cccc(N2CCN(C(=O)CCCn3c(=O)[nH]c4ccc(Br)cc4c3=O)CC2)c1,inactive: 53%
16,Cc1ccc(Nc2c(-c3ccc(Cl)cc3)nc3sccn23)c(C)c1,inactive: 47%
17,Cc1ccc(C)c(NC(=O)N2CCC(CN3CCOCC3)CC2)c1,inactive: 102%
18,CCNc1ccc(-c2nc(-c3ccccn3)no2)cc1[N+](=O)[O-],inactive: 60%
19,COc1ccc(-c2onc(C)c2C)cc1S(=O)(=O)NCC(C)c1ccccc1 (stereo not drawn),inactive: 79%
20,COc1ccc(N(CCC#N)S(=O)(=O)c2cccc3nsnc23)cc1,inactive: 100%

row,SMILES,survival
1,Cc1cc(NC(=O)COCc2cc(-c3ccc(F)cc3)on2)ccc1Br,inactive: 115%
2,O=C(CCCCn1c(=O)c2ccccc2n(Cc2ccccc2Cl)c1=O)NCc1ccc2c(c1)OCO2,inactive: 78%
3,CCc1ccc(N2CC34C=CC(O3)C(C(=O)O)C4C2=O)cc1 (stereo not drawn),inactive: 104%
4,CCCN(CCC)C(=O)Cn1nnc2sc(-c3ccccc3)cc2c1=O,inactive: 70%
5,O=c1c2cnn(-c3ccc(F)cc3)c2ncn1Cc1cccc(Cl)c1,inactive: 104%
6,CCn1c(=O)c2cc(C(=O)NCCCOC)sc2c2ccccc21,inactive: 103%
7,Cc1cc(C)n(-c2nc3ccccc3nc2Nc2ccc(Cl)cc2Cl)n1,inactive: 75%
8,COc1ccc(CNC(=O)CCC2N=C3c4ccccc4N=C(SCc4cccc(F)c4)N3C2=O)cc1 (stereo not drawn),inactive: 117%
9,COc1ccc(S(=O)(=O)n2nc(C)c(S(=O)(=O)N3CCCCCC3)c2C)cc1,inactive: 76%
10,Cc1cc(C)n2c(Nc3ccc4c(c3)OCCO4)c(-c3ccc(Cl)cc3)nc2n1,inactive: 120%
11,Cc1ccccc1NC(=O)NCCCN1CCN(c2ccccc2F)CC1,inactive: 130%
12,O=C(CNS(=O)(=O)c1ccccc1)N1CCCC1,inactive: 82%
13,Cc1ccc(C(=O)c2cn(Cc3cccc(C)c3)c3nc(C)ccc3c2=O)cc1,inactive: 54%
14,Cc1nn2c(=O)cc(COC(=O)c3cccc(NC(=O)COc4ccccc4Cl)c3)nc2s1,inactive: 85%
15,COc1ccc(NC(=O)Cn2c(=O)n(-c3ccccc3)c(=O)c3c4c(sc32)CCCC4)c(OC)c1,inactive: 94%
16,CCOC(=O)/C(C#N)=C\C1=C(N2CCCC2)CC(C)(C)OC1,inactive: 91%
17,Cc1ccc(CNC(=O)c2nc(SCc3ccc(F)cc3)ncc2Cl)cc1,inactive: 71%
18,CC(C)Oc1ccc(CNS(=O)(=O)c2ccc3c(c2)C(C)(C)C(=O)N3C)cc1,inactive: 84%
